{
  "source": "PubChem BioAssay AID1347071",
  "about": "(National Center for Advancing Translational Sciences (NCATS), 2019)",
  "note": "Out of some 410,000 compounds screened, about 260 (0.063%) were called active. Inconclusive means that the source gave no clear call. Such entries were picked first, then a sample of the others. Calls come from the whole dose curve; as a rule, active = well fitted activation curve with a large enough effect; inconclusive = small, poorly fitted or top-dose-only effect; inactive = no such curve, though single readings can be large or run the other way. No potency is given beside an inconclusive call; the fits are too rough.",
  "data": [
    {"test": "qHTS for compounds that reverse cellular toxicity of Amyloid beta (A-beta) peptide in yeast: Primary Screen; note: nearly all actives have a fitted effect of over 55% in size; note: potency is the fitted concentration of half-maximal effect; tags give direction and shape of the fitted curve", "details": "yeast expressing A-beta42, growth rescue, OD600, 48 h; growth rescue: at 46.1 µM (top of the series), 0% DMSO, 100% iron-clioquinol control", "in_short": "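Yeast A-beta toxicity model in growth medium with pinned compounds, 48 h at 30 C; growth read as absorbance at 600 nm. Normalized to FeCl3/clioquinol equimolar mix (positive) and DMSO (negative).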", "values": [
      {"compound": "CCNC(=O)NC(=O)C(C)SCc1ccccc1C", "note": "(centres undefined)", "Potency": "inconclusive [activator, partial curve]"},
      {"compound": "Cc1ccsc1/C=N/NC(=S)NCc1ccccc1", "Potency": "inconclusive [activator, partial curve, poor fit]"},
      {"compound": "COc1ccc(NC(=O)CCc2nnc3n(Cc4ccccc4Cl)c(=O)c4ccccc4n23)cc1", "growth rescue": "inactive: -15.3%"},
      {"compound": "Cc1cccc(N(Cc2ccccc2)C(=O)CCl)c1", "growth rescue": "inactive: -33.1%"},
      {"compound": "COc1cccc(C(=O)Nc2nnc(-c3ccc(Cl)cc3)o2)c1", "Potency": "inconclusive [activator, single point]"},
      {"compound": "COc1cccc(-c2nc(N3CCCCC3C)c3ccccc3n2)c1O", "note": "(centres undefined)", "growth rescue": "inactive: -26.1%"},
      {"compound": "O=C(NC1CCCCC1)C(c1cccnc1)N(C(=O)c1csnn1)c1ccc(F)cc1", "note": "(centres undefined)", "growth rescue": "inactive: -15.8%"},
      {"compound": "CSc1ccc(CCNC(=O)c2ccc(-c3nc(COc4ccc(C)cc4)c(C)o3)cc2)cc1", "growth rescue": "inactive: -6.88%"},
      {"compound": "CCOC(=O)c1nnc(-c2ccccc2)nc1NCc1ccc(Cl)cc1", "growth rescue": "inactive: 13.4%"},
      {"compound": "Cc1ccc(Cl)cc1NC(C#N)c1ccccc1", "note": "(centres undefined)", "Potency": "inconclusive [activator, single point]"},
      {"compound": "Cc1ccc(CC2(C)C(=O)Nc3ccc(OC(F)(F)F)cc32)cc1", "note": "(centres undefined)", "Potency": "inconclusive [activator, single point]"},
      {"compound": "O=C(CSc1nnnn1-c1ccccc1)NC1CCCc2ccccc21", "note": "(centres undefined)", "Potency": "inconclusive [activator, partial curve, poor fit]"},
      {"compound": "CCOC(=O)N1CCN(c2nc(C)c3c(n2)CC(C)CC3=O)CC1", "note": "(centres undefined)", "growth rescue": "inactive: 14.8%"},
      {"compound": "Cc1ccnc(Nc2nc(-c3c(C)nc4sccn34)cs2)c1", "growth rescue": "inactive: 12.5%"},
      {"compound": "C/C(N)=C(/C#N)C(=O)COC(=O)c1cc(-c2cccc3ccccc23)nc2ccccc12", "Potency": "inconclusive [activator, partial curve, poor fit]"},
      {"compound": "Cc1nc2sccc2c(=O)n1-c1cccc(Cl)c1", "growth rescue": "inactive: -5.14%"},
      {"compound": "CCC(c1nnnn1-c1ccc2c(c1)OCCO2)N1CCN(c2ccc(OC)cc2)CC1", "note": "(centres undefined)", "Potency": "inconclusive [activator, partial curve]"},
      {"compound": "COc1ccc2c(c1)CCc1c(C(=O)Nc3c(C)nn(Cc4ccccc4C)c3C)noc1-2", "Potency": "inconclusive [activator, partial curve]"},
      {"compound": "O=C(Nc1nc(-c2ccccc2)cs1)c1ccco1", "growth rescue": "inactive: 4.72%"},
      {"compound": "O=C(O)C1CCCCC1C(=O)OCCCCOC(=O)C1CCCCC1C(=O)O", "note": "(centres undefined)", "Potency": "inconclusive [activator, partial curve, poor fit]"},
      {"compound": "O=C(CSc1nc2c(sc3ccccc32)c(=O)n1Cc1ccco1)NCC1CCCO1", "note": "(centres undefined)", "Potency": "inconclusive [activator, partial curve, poor fit]"},
      {"compound": "COc1ccccc1NC(=O)c1ccc2c(c1)N(CC#N)C(=O)C(C)(C)O2", "Potency": "inconclusive [activator, single point]"},
      {"compound": "O=C(NC(=S)N1CCCCCC1)c1cccc([N+](=O)[O-])c1", "Potency": "inconclusive [activator, partial curve, poor fit]"},
      {"compound": "COc1ccc(/C=N/NC(=O)c2ccc(NC(C)=O)cc2)cc1COc1ccc(F)cc1F", "growth rescue": "inactive: 2.29%"},
      {"compound": "C=CCNC(=S)N/N=C/c1ccc(-c2ccc(Cl)cc2Cl)o1", "Potency": "inconclusive [activator, partial curve, poor fit]"},
      {"compound": "O=C(C1COc2ccccc2O1)N1CCN(c2nc3ccc(F)cc3s2)CC1", "note": "(centres undefined)", "Potency": "inconclusive [activator, partial curve, poor fit]"},
      {"compound": "CC1(C(=O)c2ccccc2)C2c3c(ccc4ccccc34)OC(=O)C21C(=O)N1CCOCC1", "note": "(centres undefined)", "Potency": "inconclusive [activator, partial curve]"},
      {"compound": "COc1ccc(/C=N/NC(=S)NCC2CCCO2)cc1", "note": "(centres undefined)", "Potency": "inconclusive [activator, single point]"},
      {"compound": "O=C1CN(C(=O)C2CCC(=O)N(CCc3ccc(Cl)cc3)C2)CCN1", "note": "(centres undefined)", "growth rescue": "inactive: 0.104%"},
      {"compound": "COc1cc(/C=N/Nc2nc(Nc3ccccc3)nc(-n3nc(C)cc3C)n2)cc(OC)c1OC", "Potency": "inconclusive [activator, full curve]"},
      {"compound": "O=S(=O)(Nc1nc(SCc2ccc(Cl)cc2)n[nH]1)c1ccc(F)cc1", "Potency": "inconclusive [activator, single point]"},
      {"compound": "Cc1cc2ccccc2n1CCNC(=O)c1ccc(Br)o1", "growth rescue": "inactive: -11.6%"},
      {"compound": "Fc1ccc(NC(=S)Nc2cccc3ccccc23)cc1F", "Potency": "inconclusive [activator, single point]"},
      {"compound": "C=CCn1c(O)c(N=NC(=S)Nc2cccc(OC)c2)c2ccccc21", "Potency": "inconclusive [activator, partial curve, poor fit]"},
      {"compound": "O=C(CS(=O)(=O)c1ccccc1)c1cc2cc(F)ccc2oc1=O", "Potency": "inconclusive [activator, partial curve]"},
      {"compound": "CC(C)n1c(=S)[nH]c2cc(Cl)ccc21", "Potency": "inconclusive [activator, partial curve, poor fit]"},
      {"compound": "CCC(C)NC(=S)Nc1ccccc1", "note": "(centres undefined)", "Potency": "inconclusive [activator, single point]"},
      {"compound": "Cc1c(Cl)cccc1NC(=S)NC1CC1", "Potency": "inconclusive [activator, single point]"},
      {"compound": "CCc1nnc(NC(=O)c2ccc(S(=O)(=O)N3CCCC(C)C3)cc2)o1", "note": "(centres undefined)", "Potency": "inconclusive [activator, partial curve, poor fit]"},
      {"compound": "CC(=O)NC(c1ccco1)c1cc(Cl)c2cccnc2c1O", "note": "(centres undefined)", "Potency": "inconclusive [activator, single point]"},
      {"compound": "O=C(Cn1cc(SCc2ccc(C(F)(F)F)cc2)c2ccccc21)N1CCOCC1", "Potency": "inconclusive [activator, single point]"},
      {"compound": "CCCCSc1nc(-c2ccc(OC)cc2)ccc1C#N", "growth rescue": "inactive: -29%"},
      {"compound": "Cc1c(C(=O)N(C)Cc2ccc(F)cc2)sc(=O)n1Cc1ccc(Cl)c(Cl)c1", "Potency": "inconclusive [activator, partial curve, poor fit]"},
      {"compound": "CCOC(=O)c1cn(-c2ccccc2)nc1-c1ccncc1", "growth rescue": "inactive: 17.1%"},
      {"compound": "CC(C)(C)c1[nH]nc2c1C(C1C=CCCC1)C(C#N)=C(N)O2", "note": "(centres undefined)", "Potency": "inconclusive [activator, single point]"},
      {"compound": "Cc1ccc2c(c1)C(Cc1ccccc1F)C(=O)N2", "note": "(centres undefined)", "Potency": "inconclusive [activator, single point]"},
      {"compound": "COc1ccccc1C(=O)COC(=O)c1cc(S(=O)(=O)N2CCCCC2)ccc1N1CCOCC1", "Potency": "inconclusive [activator, full curve]"},
      {"compound": "Cc1cccc(C)c1NC(=O)C(c1ccc(C#N)cc1)n1c(=O)c(-c2cc3ccccc3[nH]2)nc2ccccc21", "note": "(centres undefined)", "Potency": "inconclusive [activator, partial curve]"},
      {"compound": "COc1cc(OC)cc(C(=O)NC(=S)NNC(=O)[C@H]2C[C@@H]2c2ccccc2)c1", "Potency": "inconclusive [activator, full curve]"},
      {"compound": "CC(C)(C)Cc1c(C2CCCCC2)nc2ccc(Cl)cn12", "Potency": "inconclusive [activator, single point]"},
      {"compound": "Cn1c(CNC(=O)CNC(=O)Cc2ccc(Cl)cc2)cc(=O)n(C)c1=O", "growth rescue": "inactive: 0.971%"},
      {"compound": "CC1C(=O)C(C)C(c2cccc(Br)c2)NC1c1cccc(Br)c1", "note": "(centres undefined)", "Potency": "inconclusive [activator, partial curve, poor fit]"},
      {"compound": "O=C1NCCc2c1[nH]c1c(Cl)ccc(Cl)c21", "growth rescue": "inactive: 4.46%"},
      {"compound": "O=[N+]([O-])c1cccc(/C=N/Nc2nc(N3CCCCC3)nc(N3CCCCC3)n2)c1", "Potency": "inconclusive [activator, single point]"},
      {"compound": "Cc1ccc(-c2cc(-c3c(C)nn(C)c(=O)c3N)[nH]n2)cc1", "growth rescue": "inactive: 5.44%"},
      {"compound": "CN(C)c1ccc(NC(=S)NC23CC4CC(CC(C4)C2)C3)cc1", "Potency": "inconclusive [activator, full curve, poor fit]"},
      {"compound": "Cc1ccc(OCc2cc(C(=O)N3CCC(C(O)C(C)C)CC3)no2)cc1C", "note": "(centres undefined)", "growth rescue": "inactive: 13.7%"},
      {"compound": "O=C(CCSCc1cccc(Cl)c1)NCc1ccc(F)cc1Cl", "Potency": "inconclusive [activator, partial curve]"},
      {"compound": "Cc1ccc(C2CCN(C(=S)Nc3cccc(C)c3)C2)cc1", "note": "(centres undefined)", "Potency": "active: 12.6 µM"},
      {"compound": "Cc1cccc(-c2nc3c(cnn3-c3ccccc3)c(=O)n2-c2ccc(Br)cc2)c1", "Potency": "inconclusive [activator, partial curve, poor fit]"},
      {"compound": "CSc1ccccc1NC(=S)Nc1cc(C)cc(C)c1", "Potency": "inconclusive [activator, single point]"},
      {"compound": "CC1Cn2c(C(=O)NCc3cccc(Br)c3)cc3cccc(c32)S1", "note": "(centres undefined)", "Potency": "inconclusive [activator, single point]"},
      {"compound": "Cc1ccc(CN=c2c([N+](=O)[O-])nn(-c3cccc(Cl)c3)n2O)cc1", "Potency": "inconclusive [activator, partial curve, poor fit]"},
      {"compound": "Cc1ccc2[nH]cc(C(c3ccccc3)c3ccc(C)s3)c2c1", "note": "(centres undefined)", "growth rescue": "inactive: 10.4%"},
      {"compound": "CC(=O)NC(=S)Nc1ccccc1N1CCCCC1", "Potency": "inconclusive [activator, partial curve]"},
      {"compound": "COc1ccc2[nH]c(=O)c(CN(C(=O)C3CCCO3)c3ccc(C)c(C)c3)cc2c1", "note": "(centres undefined)", "growth rescue": "inconclusive: -50.9% [activator]"},
      {"compound": "CS(=O)(=O)c1ccc(Cl)c(NC(=O)CSc2nc3ccccc3c(=O)n2Cc2ccco2)c1", "Potency": "inconclusive [activator, partial curve]"},
      {"compound": "CCN1CCC2(CC1)Oc1c(OC)cccc1C1CC(c3cccnc3)=NN12", "note": "(centres undefined)", "Potency": "inconclusive [activator, single point]"},
      {"compound": "O=C(Nc1ncc2c(n1)-c1ccccc1CC2)c1ccccc1", "growth rescue": "inactive: -6.95%"}
    ]}
  ]
}
